Measured values taken from the supplement of paper PMC3334620.
Whole data set: some 33,000 sequences, median “E-score (-0.5 to 0.5)” near -0.021, cut for the highest 2% near 0.32. The list shows a part of the results.

The sequences below were run against T1, Zap1 (UniProt P47043) (assay: PBM E-score (8-mer binding enrichment) (E-score (-0.5 to 0.5)); higher = stronger / more preferred TF binding; most listed sequences are background and not binding sites). Details: protein concentration: 200 nM; construct: GST-full length.
T1 sequence: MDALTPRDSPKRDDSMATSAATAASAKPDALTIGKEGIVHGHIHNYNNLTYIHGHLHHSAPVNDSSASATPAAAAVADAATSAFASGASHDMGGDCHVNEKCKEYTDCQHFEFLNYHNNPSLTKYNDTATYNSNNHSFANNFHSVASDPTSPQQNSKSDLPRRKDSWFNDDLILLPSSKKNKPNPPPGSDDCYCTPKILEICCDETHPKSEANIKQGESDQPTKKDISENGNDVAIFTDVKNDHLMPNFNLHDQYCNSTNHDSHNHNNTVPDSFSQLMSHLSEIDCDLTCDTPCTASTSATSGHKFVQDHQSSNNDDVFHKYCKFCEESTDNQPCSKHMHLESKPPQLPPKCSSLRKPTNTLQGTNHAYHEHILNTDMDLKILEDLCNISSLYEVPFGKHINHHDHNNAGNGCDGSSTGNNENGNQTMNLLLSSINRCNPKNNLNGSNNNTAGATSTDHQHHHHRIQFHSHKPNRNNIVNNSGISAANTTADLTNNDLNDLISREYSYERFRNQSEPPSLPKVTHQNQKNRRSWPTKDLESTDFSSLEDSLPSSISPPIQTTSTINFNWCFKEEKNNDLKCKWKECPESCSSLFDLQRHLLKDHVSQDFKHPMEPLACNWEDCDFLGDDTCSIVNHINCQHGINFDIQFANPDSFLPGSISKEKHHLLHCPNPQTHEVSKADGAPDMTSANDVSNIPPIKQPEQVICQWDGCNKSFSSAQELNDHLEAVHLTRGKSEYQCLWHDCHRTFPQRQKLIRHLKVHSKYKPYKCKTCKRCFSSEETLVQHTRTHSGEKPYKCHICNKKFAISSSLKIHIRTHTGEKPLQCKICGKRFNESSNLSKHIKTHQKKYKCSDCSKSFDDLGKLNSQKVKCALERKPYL
Outline: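 For each ungapped eight-base word taken together with its reverse complement, the Universal PBM Analysis Suite assigned an E-score. Binding data came from GST-tagged yeast transcription factors, applied at about 100-200 nM, on universal all-10-mer Agilent arrays made double-stranded by primer extension. Fluorescent anti-GST marked bound protein, and scans were normalised with masliner.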

| Sequence | PBM E-score |
| --- | --- |
| CGCGACAG | 0.16 |
| CGCACAGA | -0.173 |
| CTCCGTAA | -0.034 |
| CCCATCTC | -0.208 |
| AATGTACC | 0.202 |
| TGAACTAA | -0.0312 |
| AAGTTATC | 0.0532 |
| GGATAACC | 0.436 |
| CTCGAGAG | -0.0444 |
| CGTTTCCC | -0.112 |
| CCTACTCA | -0.014 |
| AAAGACAG | 0.108 |
| GGCATAAA | 0.045 |
| CCCAGTAG | -0.0192 |
| GTAGGAGA | -0.216 |
| AGAGGGCG | -0.236 |
| GACCTGAC | 0.113 |
| ACAGTGAA | -0.17 |
| AGCCCCTA | -0.139 |
| GAGGCCCA | -0.0554 |
| GAGATCGC | -0.329 |
| ACGGTGAG | -0.0979 |
| CATCCTGA | 0.0764 |
| CCATGGTA | 0.121 |
| CCCCCAAA | -0.22 |

| Sequence | PBM E-score |
| --- | --- |
| TACCGCAA | 0.186 |
| CCTCTGAG | 0.163 |
| ACACGTTG | -0.371 |
| ATGCCCCG | -0.218 |
| AGAAACGA | 0.158 |
| ACATCCCC | 0.138 |
| AATTGGCT | 0.134 |
| ACTAAACT | 0.141 |
| CGTTTAAC | 0.0721 |
| CGAGCTAG | -0.0682 |
| ATGACAAA | -0.0495 |
| CCTGAGAG | -0.0282 |
| AAGCCACC | -0.212 |
| ACCCGTTC | 0.176 |
| AGTTCGCA | -0.0927 |
| ATCGCGAC | 0.0816 |
| AACCGCAT | 0.253 |
| CCCAACGG | 0.208 |
| ATCTAACC | 0.226 |
| AGAGGACA | -0.0899 |
| GTGTCATA | 0.165 |
| CGAAGGCG | -0.121 |
| GACAGGCC | -0.0803 |
| GCGGCAGA | -0.149 |
| CGAAAGGC | -0.166 |

| Sequence | PBM E-score |
| --- | --- |
| AAAATTGA | 0.101 |
| AGTTTGCC | 0.00335 |
| CCCTACCA | 0.113 |
| TGGTCTAA | 0.00632 |
| CTACTGTA | -0.0171 |
| CCGAGCCC | -0.365 |
| CGCCGGTC | -0.139 |
| ATAGTTAA | 0.0396 |
| GATTGTGA | 0.0466 |
| GACAGCTC | -0.222 |
| GAAAGGAC | -0.0349 |
| GTTGAGCA | -0.00381 |
| CGAAGCGC | -0.177 |
| TACTCTCA | 0.00964 |
| CGTTAGCC | -0.0813 |
| TAAGCGGA | -0.111 |
| CCCAACCC | 0.163 |
| CAGAACTA | 0.0489 |
| ACGCCACT | -0.111 |
| AGTGTACG | 0.021 |
| AGCTACCG | -0.261 |
| ATCCAATA | 0.159 |
| CCGTTCTC | -0.047 |
| CGCAGCCG | -0.306 |
| AAATAGGA | 0.03 |

| Sequence | PBM E-score |
| --- | --- |
| AACTGCTG | -0.154 |
| AGAGGGTA | 0.29 |
| GATAATTA | 0.189 |
| CACTGACG | -0.0945 |
| CGCTCAAA | 0.0275 |
| AATTCTCT | -0.332 |
| GTCACAAA | 0.196 |
| CCCCGGAG | 0.153 |
| ACACCTGT | 0.00562 |
| GCCGCTCC | -0.35 |
| CAGTTTGA | 0.0416 |
| AAGGCGCT | -0.225 |
| CGCTGCAA | 0.0109 |
| TATGTGCA | -0.041 |
| CGCTGACG | -0.249 |
| TATAAACA | 0.168 |
| GTCTGCCA | -0.0935 |
| AATCTGCC | -0.0605 |
| ACGAAACA | 0.0606 |
| AAATTAAA | 0.21 |
| GTCTCCGA | -0.187 |
| ACTGGCCA | -0.013 |
| GCATCAGA | -0.128 |
| AACGTCTT | -0.312 |
| GTACCCTA | 0.413 |

| Sequence | PBM E-score |
| --- | --- |
| CTGCAAGC | -0.142 |
| CCAGCAGA | -0.112 |
| CTGATCAA | -0.116 |
| CATCGGAG | -0.00826 |
| CCAAAAGG | 0.337 |
| GTTGATCA | 0.0532 |
| GAATAGAC | -0.188 |
| GAAACCGA | -0.0377 |
| ACTGATGA | 0.038 |
| GTGGGTGA | 0.0723 |
| ACATAATA | 0.0464 |
| CCTCAATC | 0.158 |
| AATCTAGG | 0.0629 |
| ACAGTGTG | -0.206 |
| AGCGTGTA | -0.0382 |
| ACAAAACT | 0.18 |
| GGAATTCA | -0.0257 |
| CAAAAGCG | -0.167 |
| TGACCTCA | 0.333 |
| CACGGGGG | -0.313 |
| CTTGGCAA | -0.197 |
| GGAGTACA | -0.205 |
| CAATGCTG | -0.214 |
| AATTAAGT | 0.0821 |
| CAGATCTG | 0.0443 |

| Sequence | PBM E-score |
| --- | --- |
| CGACAAAC | 0.0937 |
| AATTCAGA | 0.0774 |
| CGTCGTAC | -0.137 |
| ACTGGAGC | -0.208 |
| GGCACGAA | -0.141 |
| GGGACATA | -0.0106 |
| ATCTCATG | 0.0492 |
| CCTTGTCG | -0.0206 |
| AGGGCTCC | -0.299 |
| AACTCAAG | 0.155 |
| AGTTGGTA | 0.137 |
| GCGACCCC | 0.191 |
| ACTTGGCG | -0.113 |
| CGAAAGCG | -0.108 |
| AATGGAAC | 0.12 |
| AAGAATAG | 0.0466 |
| ACCAGAGC | 0.0649 |
| GTCGTATA | -0.0837 |
| CTACATGC | -0.107 |
| AAGGAGCT | -0.317 |
| ACTTGGAA | -0.114 |
| ACGGCAAG | -0.313 |
| ATCTGGCA | -0.132 |
| CCAGACGA | -0.0609 |
| AATGCCAC | -0.164 |

| Sequence | PBM E-score |
| --- | --- |
| AAACTTCG | -0.0089 |
| AACAGACG | -0.192 |
| GCAAAGAC | 0.0492 |
| GCATTCAC | -0.0879 |
| ACATCGGC | -0.187 |
| AAGAATAA | 0.0751 |
| ACAATAGT | 0.052 |
| GACCCTAC | 0.311 |
| GGTCGAAA | -0.00628 |
| CGCGGTAA | 0.302 |
| AGGGCCTC | 0.112 |
| AAGGCTGT | -0.0581 |
| ATAGCGAT | 0.0306 |
| GGTACTCA | 0.329 |
| GGTTCGTA | 0.134 |
| CCCTTCAC | 0.169 |
| TATCACAA | 0.13 |
| CTTTTGTC | 0.0509 |
| GCACCATA | 0.0877 |
| CTGCCGTA | -0.19 |
| ACAGCCTC | -0.186 |
| CGCTCCAC | -0.301 |
